{"source": "paper PMC4336329", "about": "(PLoS ONE, 2015)", "note": "Screen size: about 310,000 compounds; about 14,000 (4.5%) showed an effect of 50% or more. Effects have a minus sign here. The list shows a part of the results.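 Also: peak tail current of the secondary pulse compared with the same well before compound.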", "data": [{"target": "human ether-à-go-go-related gene (hERG) potassium channel (human, UniProt Q12809)", "sequence (Q12809 whole entry, looked up)": "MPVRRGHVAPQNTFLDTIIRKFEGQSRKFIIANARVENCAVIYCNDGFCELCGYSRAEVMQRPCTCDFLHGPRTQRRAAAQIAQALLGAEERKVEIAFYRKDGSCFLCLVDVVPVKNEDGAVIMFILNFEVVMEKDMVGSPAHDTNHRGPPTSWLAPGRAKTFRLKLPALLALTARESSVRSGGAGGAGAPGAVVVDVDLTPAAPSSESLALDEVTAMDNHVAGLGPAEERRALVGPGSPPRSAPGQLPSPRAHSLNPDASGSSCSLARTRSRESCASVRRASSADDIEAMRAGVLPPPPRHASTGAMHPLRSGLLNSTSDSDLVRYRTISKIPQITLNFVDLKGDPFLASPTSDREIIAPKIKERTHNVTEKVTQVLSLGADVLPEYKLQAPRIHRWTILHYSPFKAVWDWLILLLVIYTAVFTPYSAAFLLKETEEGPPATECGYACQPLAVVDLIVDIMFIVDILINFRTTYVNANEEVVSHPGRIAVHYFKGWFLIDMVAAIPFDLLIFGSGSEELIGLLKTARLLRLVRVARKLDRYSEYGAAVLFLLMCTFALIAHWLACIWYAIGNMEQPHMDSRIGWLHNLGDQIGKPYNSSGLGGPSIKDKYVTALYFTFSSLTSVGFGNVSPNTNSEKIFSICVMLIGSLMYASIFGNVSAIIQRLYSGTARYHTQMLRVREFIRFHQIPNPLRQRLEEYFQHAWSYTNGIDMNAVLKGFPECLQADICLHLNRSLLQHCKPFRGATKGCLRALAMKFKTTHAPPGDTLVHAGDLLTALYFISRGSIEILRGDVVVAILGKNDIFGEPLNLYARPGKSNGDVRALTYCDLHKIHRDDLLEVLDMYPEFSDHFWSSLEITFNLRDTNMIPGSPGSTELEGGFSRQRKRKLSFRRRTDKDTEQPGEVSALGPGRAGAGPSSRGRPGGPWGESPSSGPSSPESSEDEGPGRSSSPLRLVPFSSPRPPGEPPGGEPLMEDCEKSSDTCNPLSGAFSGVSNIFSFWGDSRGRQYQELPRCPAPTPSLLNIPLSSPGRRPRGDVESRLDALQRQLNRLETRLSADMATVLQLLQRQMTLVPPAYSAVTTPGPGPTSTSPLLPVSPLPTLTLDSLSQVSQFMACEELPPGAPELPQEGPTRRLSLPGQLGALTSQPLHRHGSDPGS", "experiment": "primary screen, population patch clamp on CHO cells stably expressing hERG", "units": {"hERG current change (%, negative = inhibition) at 10uM": "%"}, "values": [{"smiles": "Cl.Nc1nc(N2CCN(C(=O)c3ccco3)CC2)nc2ccccc12", "hERG current change (%, negative = inhibition) at 10uM": -49.4}, {"smiles": "CCOc1ccc(Nc2nc3cc(S(=O)(=O)CC)ccc3o2)cc1", "hERG current change (%, negative = inhibition) at 10uM": -1.86}, {"smiles": "O=C(NNC(=S)NC1CCCCC1)c1ccccc1Cl", "hERG current change (%, negative = inhibition) at 10uM": 9.05}, {"smiles": "CC1CCCN(CCCNC(=O)c2coc3nc4ccccc4nc23)C1", "note": "(centres unmarked)", "hERG current change (%, negative = inhibition) at 10uM": -5.67}, {"smiles": "Cc1c(C(=O)N/N=C/c2c(O)ccc3ccccc23)nnn1-c1nonc1N", "hERG current change (%, negative = inhibition) at 10uM": 27.5}, {"smiles": "COc1ccc(C2CC(C(F)(F)F)n3nc(C(=O)NCCCn4ccnc4)cc3N2)cc1OC", "note": "(centres unmarked)", "hERG current change (%, negative = inhibition) at 10uM": -4.72}, {"smiles": "COc1cc(NC(=O)CN2CCN(S(=O)(=O)/C=C/c3ccccc3)CC2)cc(OC)c1OC", "hERG current change (%, negative = inhibition) at 10uM": -14.8}, {"smiles": "CC(C)NC(=S)Nc1ccc2[nH]c(=O)[nH]c2c1", "hERG current change (%, negative = inhibition) at 10uM": 10.8}, {"smiles": "CCOc1ccnc2c1c(=O)n(Cc1cc(OC)cc(OC)c1)c(=O)n2C", "hERG current change (%, negative = inhibition) at 10uM": -2.37}, {"smiles": "CCSc1nsc(SCC)c1C(N)=O", "hERG current change (%, negative = inhibition) at 10uM": 7.66}, {"smiles": "Cc1c(NC(=O)COc2ccc(C(C)C)cc2)c(=O)n(-c2ccccc2)n1C", "hERG current change (%, negative = inhibition) at 10uM": -46.8}, {"smiles": "Cc1ccc(CNC(=O)/C=C/c2cccs2)cc1", "hERG current change (%, negative = inhibition) at 10uM": -14.8}, {"smiles": "Cc1cccc(OCC(=O)Nc2cc(Cl)ccc2-n2cncn2)c1C", "hERG current change (%, negative = inhibition) at 10uM": -3.83}, {"smiles": "Cc1c(C(=O)NC(=S)NCc2cccnc2)oc2ccccc12", "hERG current change (%, negative = inhibition) at 10uM": -6.6}, {"smiles": "CCc1ccc2c(CN(CC)Cc3nc4ccccc4c(=O)[nH]3)cc(=O)oc2c1", "hERG current change (%, negative = inhibition) at 10uM": -71.6}, {"smiles": "CCN1CCCC1CNC(=O)c1cc(OC)c(OC)c(OC)c1", "note": "(centres unmarked)", "hERG current change (%, negative = inhibition) at 10uM": 12.8}, {"smiles": "Cc1ccc(N(C(=O)c2snc(C(N)=O)c2N)C(C(=O)NCC2CCCO2)c2ccc(C)o2)c(C)c1", "note": "(centres unmarked)", "hERG current change (%, negative = inhibition) at 10uM": -40.9}, {"smiles": "CCOc1ccc2[nH]c(=O)c(CN(CCO)C(=O)CC)cc2c1", "hERG current change (%, negative = inhibition) at 10uM": 22.8}, {"smiles": "CN(CC(=O)Nc1ccc(Cl)c(C(F)(F)F)c1)C(=O)c1cccs1", "hERG current change (%, negative = inhibition) at 10uM": 6.98}, {"smiles": "CCOc1nc2cnccc2n(CC(=O)Nc2ccccc2F)c1=O", "hERG current change (%, negative = inhibition) at 10uM": 26.4}, {"smiles": "CCOc1ccc(Cc2c(Cl)nc(SC)nc2OC)cc1", "hERG current change (%, negative = inhibition) at 10uM": 2.63}, {"smiles": "COc1ccc(Cc2nnc(NC(=O)c3ccc(F)cc3)s2)cc1OC", "hERG current change (%, negative = inhibition) at 10uM": 18.1}, {"smiles": "Cc1cccc(-c2cc3nc4c(c(N5CCCC(O)C5)n3n2)CCC4)c1", "note": "(centres unmarked)", "hERG current change (%, negative = inhibition) at 10uM": -41.1}, {"smiles": "Cc1c(C)c2cc(Cl)c(O)c(CN3CCCCC3)c2oc1=O", "hERG current change (%, negative = inhibition) at 10uM": 12.1}, {"smiles": "O=C(CSc1nnc(-c2csc3c2CCCC3)o1)Nc1ccccc1", "hERG current change (%, negative = inhibition) at 10uM": -0.706}, {"smiles": "Cc1cc(N2CCOCC2)nc(SCc2ccc(Cl)cc2Cl)n1", "hERG current change (%, negative = inhibition) at 10uM": -11.3}, {"smiles": "COc1ccc2[nH]c(=O)c(-c3noc(-c4ccc(F)cc4)n3)cc2c1", "hERG current change (%, negative = inhibition) at 10uM": 1.57}, {"smiles": "CN(C)CCNc1nc(-c2ccccc2)c2c(c1C#N)CC(C)(C)OC2", "hERG current change (%, negative = inhibition) at 10uM": -42.4}, {"smiles": "Cc1sc2nc(CN3CCOCC3)nc(Oc3ccc(NC(=O)c4ccco4)cc3)c2c1C", "hERG current change (%, negative = inhibition) at 10uM": -38.9}, {"smiles": "O=C(O)C(=O)O.OC(COC(c1ccc(F)cc1)c1ccc(F)cc1)CN1CCCC1", "note": "(centres unmarked)", "hERG current change (%, negative = inhibition) at 10uM": -70.6}, {"smiles": "O=C(NNC(=O)c1ccc(Br)s1)c1cccc(Cl)c1", "hERG current change (%, negative = inhibition) at 10uM": 11.7}, {"smiles": "CNC(=O)/C(=C\\c1ccco1)NC(=O)c1ccco1", "hERG current change (%, negative = inhibition) at 10uM": 10.3}, {"smiles": "CC(C)n1c(=O)c(C=Nc2ccc(S(N)(=O)=O)cc2)c(O)n(Cc2ccco2)c1=O", "hERG current change (%, negative = inhibition) at 10uM": 2.73}, {"smiles": "Cc1nn(-c2ccc(N3CCOCC3)nn2)c(C)c1CCC(=O)N1CCN(C)CC1", "hERG current change (%, negative = inhibition) at 10uM": 14}, {"smiles": "Cc1ccc(S(=O)(=O)NCC(=O)OCC(=O)NC(=O)c2cccn2C)cc1", "hERG current change (%, negative = inhibition) at 10uM": 9.14}, {"smiles": "O=C(NN=C1CCCCCC1)c1cc(-c2ccccc2)nc2ccccc12", "hERG current change (%, negative = inhibition) at 10uM": -14.5}, {"smiles": "Cn1c(=O)c2c(ncn2CC(=O)N/N=C/c2ccco2)n(C)c1=O", "hERG current change (%, negative = inhibition) at 10uM": -4.23}, {"smiles": "CC(C)(C)c1ccc(Cn2nnc3c(=O)[nH]c(C4CCCN(C(=O)c5ccco5)C4)nc32)cc1", "note": "(centres unmarked)", "hERG current change (%, negative = inhibition) at 10uM": -11}, {"smiles": "CCOC(=O)CSc1nnc(COc2ccc3ccccc3c2)o1", "hERG current change (%, negative = inhibition) at 10uM": 11.1}, {"smiles": "CCC(CC)C(=O)c1c[nH]c(C(=O)NC2CCCCCC2)c1", "hERG current change (%, negative = inhibition) at 10uM": -27.3}, {"smiles": "O=C(Nc1cccc(-n2cnnn2)c1)c1cc(Cl)nc(Cl)c1", "hERG current change (%, negative = inhibition) at 10uM": -4.24}, {"smiles": "CC(=O)c1ccc(N2CCN(C(=O)Nc3ccc(Cl)cc3)CC2)cc1", "hERG current change (%, negative = inhibition) at 10uM": -8.35}, {"smiles": "O=C(Cn1nc(-c2ccc3c(c2)OCCO3)ccc1=O)Nc1ccc(-n2cnnn2)cc1", "hERG current change (%, negative = inhibition) at 10uM": 17}, {"smiles": "CCC(C)(C)NC(=O)C(Sc1ccccc1)c1ccccc1", "note": "(centres unmarked)", "hERG current change (%, negative = inhibition) at 10uM": 9.2}, {"smiles": "COc1ccc(NC(=O)CSc2nnc(-c3ccncc3)o2)c([N+](=O)[O-])c1", "hERG current change (%, negative = inhibition) at 10uM": 6.12}, {"smiles": "O=C(NCc1ccco1)c1ccc2c(=O)n(CC3CCCO3)c(=S)[nH]c2c1", "note": "(centres unmarked)", "hERG current change (%, negative = inhibition) at 10uM": -1.68}, {"smiles": "COc1ccc(CCN(C)C(=O)CN2C(=O)NC3(CCCc4ccccc43)C2=O)cc1OC", "note": "(centres unmarked)", "hERG current change (%, negative = inhibition) at 10uM": 11.6}, {"smiles": "CCOc1ccccc1NC(=O)CN(c1nccs1)S(=O)(=O)c1ccc(N)cc1", "hERG current change (%, negative = inhibition) at 10uM": 15}, {"smiles": "CCOC(=O)c1c(S(=O)(=O)N2CCCC(C)C2)c(C)n(C)c1C", "note": "(centres unmarked)", "hERG current change (%, negative = inhibition) at 10uM": 2.59}, {"smiles": "CC1(C)Cc2c(c(N3CCOCC3)nc3sc(-c4ccc(C(=O)O)o4)c(N)c23)CO1", "hERG current change (%, negative = inhibition) at 10uM": -15.2}, {"smiles": "CCOC(=O)NC(=O)CSc1ccc(C)cc1C", "hERG current change (%, negative = inhibition) at 10uM": -1.12}, {"smiles": "c1ccc2c(c1)nc(CN1CCOCC1)n1c3ccccc3nc21", "hERG current change (%, negative = inhibition) at 10uM": -41.5}, {"smiles": "Cc1nnc(SCCCN2C(=O)c3ccccc3C2=O)o1", "hERG current change (%, negative = inhibition) at 10uM": -1.14}, {"smiles": "CCOCCCNC(=O)CCc1ccc(-n2cnc3cccnc32)cc1", "hERG current change (%, negative = inhibition) at 10uM": 5.37}, {"smiles": "Cc1ccc(C2CC(=O)NC(SCc3ccccc3)=C2C#N)o1", "note": "(centres unmarked)", "hERG current change (%, negative = inhibition) at 10uM": -8.11}, {"smiles": "COc1ccc(OC)c(N(CC(=O)Nc2cccnc2)S(=O)(=O)c2ccc(C)cc2)c1", "hERG current change (%, negative = inhibition) at 10uM": -12.1}]}]}
